Source: the BET-seq Pho4 binding data (Le et al. 2018)
The list shows a part of the results. Values were computed here from the reads of four pooled replicates and scatter widely.

What follows are sequences tested against T1, Pho4 (S. cerevisiae) (UniProt P07270) (assay: relative binding free energy (BET-seq); higher = weaker binding). Conditions: reference: library average.
T1 sequence: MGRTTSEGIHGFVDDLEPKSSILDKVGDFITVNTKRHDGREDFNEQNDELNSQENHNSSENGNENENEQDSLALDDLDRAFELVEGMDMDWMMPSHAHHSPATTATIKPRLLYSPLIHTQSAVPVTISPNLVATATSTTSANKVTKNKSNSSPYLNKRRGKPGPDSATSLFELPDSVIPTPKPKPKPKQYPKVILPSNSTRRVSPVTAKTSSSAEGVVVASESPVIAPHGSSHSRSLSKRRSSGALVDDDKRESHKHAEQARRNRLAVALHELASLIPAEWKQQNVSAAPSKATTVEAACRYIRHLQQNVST

Sequence	relative binding free energy [kcal/mol]
TTCGGCACGTGGGTTG	-0.16
AGGGGCACGTGTGATG	0.01
TTTAGCACGTGAGATA	0.27
GTTCACACGTGGGGCT	0.04
ATAGGCACGTGGTTAG	-0.25
ATATCCACGTGGGGAG	-0.03
TGAAACACGTGCGGGG	-0.05
GGTTTCACGTGCGCGA	0.33
GGTTGCACGTGACGCG	0.07
GTTAACACGTGGAGGT	0.11
GTTAACACGTGAGTGC	0.29
TAGTGCACGTGGTTCG	-0.01
TGTCGCACGTGGATAG	-0.07
ATTATCACGTGATGAA	0.32
TAGTGCACGTGTAGGC	-0.02
GTTCACACGTGGTGTA	0.06
GCGGGCACGTGCGTCG	-0.06
GGTATCACGTGTGGTG	0.2
AGGGTCACGTGATTAT	0.31
GGTAGCACGTGGTCGA	-0.28
GTGAGCACGTGGTCGC	-0.16
CCGTACACGTGGGGGG	-0.21
ATAAGCACGTGTAGTT	-0.16

Sequence	relative binding free energy [kcal/mol]
GTAGGCACGTGTAAGC	0.04
GTTCACACGTGTGGGG	0.14
AGGTACACGTGGGAGC	-0.12
TTGGGCACGTGCTGTT	-0.12
TGAAACACGTGTGGTC	0.06
TGGGTCACGTGGTAGG	0.12
AGTTCCACGTGTCGGT	0.04
GAGGGCACGTGAGTTG	0.2
CACGGCACGTGAGTGG	0.13
TGACGCACGTGGAGTG	-0.23
GGCTGCACGTGGGTCT	-0.04
TTAGTCACGTGTAAAT	0.23
CAATTCACGTGTTGTG	0.2
TTTTTCACGTGGGTAC	0.14
AAGTACACGTGGGTTA	0.06
AATGTCACGTGGGTGG	0.03
GGTGGCACGTGCTGTA	-0.04
TAGCGCACGTGGGCGT	-0.31
AATGACACGTGTCGGG	0.13
TTGTACACGTGAGTAA	0.28
AAGTTCACGTGGAGTT	0.39
GGGAGCACGTGAGGCA	0.07
CTAGTCACGTGTGGCA	0.13

Sequence	relative binding free energy [kcal/mol]
GGGTTCACGTGCGAGG	0.35
CAGTGCACGTGTAGTA	0.03
TACTTCACGTGGTGCT	0.18
TATGACACGTGAGGTA	0.34
TGAATCACGTGTAGGC	0.13
TTTCTCACGTGTGCGG	0.29
AAGCGCACGTGTTGTG	-0.11
GGTTGCACGTGAATTA	0.22
AGCGACACGTGGTTGA	0.09
AACTTCACGTGTTTGT	0.38
GGTTTCACGTGTTCGC	0.3
AAAGGCACGTGTTTTG	0.06
GCGTTCACGTGGGGCA	0.28
ACCTTCACGTGTGGTG	0.29
TGTCGCACGTGATTTA	0
GGTTGCACGTGGGTCG	-0.08
CGGAACACGTGGAGTA	0.14
GAAAGCACGTGAGTGG	0.28
TTATACACGTGGTATC	0.02
GATGGCACGTGTTCAG	-0.06
TGTCTCACGTGAGGGT	0.31
GGAGTCACGTGAGATG	0.28
GGGAGCACGTGTGTAT	0.02

Sequence	relative binding free energy [kcal/mol]
AGCGTCACGTGGCTGG	-0.08
GGCGTCACGTGGGGAG	0.02
TCTGGCACGTGTGGCT	-0.06
ATGTGCACGTGCGTTG	-0.21
GTTTGCACGTGGATGG	0.09
TAGGGCACGTGAAGGG	0.13
GGCTACACGTGGCGGT	0.3
GGGTTCACGTGAATTA	0.26
AGTGGCACGTGTGAAC	0.03
GCTCTCACGTGGCGGG	0.38
TGGGACACGTGGAGGC	0.05
GGGGCCACGTGAAGTG	0.02
GGTTCCACGTGGTGGA	0
CGTGGCACGTGATTAG	0.03
GAGTGCACGTGTAGGC	0.03
TTTTGCACGTGGGATC	-0.1
ATTAACACGTGGTGTT	-0.06
TGCGGCACGTGTGAGA	-0.06
ATAGTCACGTGATCGT	0.09
GGTGGCACGTGCGATT	-0.04
AGTGACACGTGAGGTG	0.12
GAGGCCACGTGGGTTT	-0.22
GCAGGCACGTGTGAGT	0.07

Sequence	relative binding free energy [kcal/mol]
GGATGCACGTGTTGTC	-0.05
CGTAGCACGTGTATAG	-0.09
TTAGTCACGTGGCTTT	-0.06
TTCATCACGTGGTGAG	0.17
GACGTCACGTGTTTGT	0.11
TATCGCACGTGAGTAT	0.08
AGCCTCACGTGGGGTT	0.06
AAGTACACGTGTGTAG	-0.04
GGTGGCACGTGGCGGA	-0.07
AGTCTCACGTGTGGTC	0.25
ACTGACACGTGGGGGT	-0.17
TTAGACACGTGGCAGG	-0.04
AGTGACACGTGGACGT	0.1
GTAATCACGTGGAGTG	0.15
CTGATCACGTGGGTAG	0.05
AAGAGCACGTGGGAGT	-0.2
CGTTACACGTGGAGTT	0.26
TACGGCACGTGCGCGG	-0.14
ATTTTCACGTGTCTGC	0.32
TCTGGCACGTGGGTGT	-0.16
GTGTACACGTGTTTTA	0.16
AGTCGCACGTGACGGT	0.03
AAGTTCACGTGTTTAA	0.29
